Reference: paper PMC4336329 (PLoS ONE, 2015)
About 2,200 (0.71%) of roughly 310,000 compounds showed an effect of 50% or more. The effect is printed as a negative number. Some of the results follow.

These compounds were tested against human ether-à-go-go-related gene (hERG) potassium channel (human, UniProt Q12809) (assay: primary screen, population patch clamp on CHO cells stably expressing hERG).
Sequence of human ether-à-go-go-related gene (hERG) potassium channel (Q12809 whole entry, looked up): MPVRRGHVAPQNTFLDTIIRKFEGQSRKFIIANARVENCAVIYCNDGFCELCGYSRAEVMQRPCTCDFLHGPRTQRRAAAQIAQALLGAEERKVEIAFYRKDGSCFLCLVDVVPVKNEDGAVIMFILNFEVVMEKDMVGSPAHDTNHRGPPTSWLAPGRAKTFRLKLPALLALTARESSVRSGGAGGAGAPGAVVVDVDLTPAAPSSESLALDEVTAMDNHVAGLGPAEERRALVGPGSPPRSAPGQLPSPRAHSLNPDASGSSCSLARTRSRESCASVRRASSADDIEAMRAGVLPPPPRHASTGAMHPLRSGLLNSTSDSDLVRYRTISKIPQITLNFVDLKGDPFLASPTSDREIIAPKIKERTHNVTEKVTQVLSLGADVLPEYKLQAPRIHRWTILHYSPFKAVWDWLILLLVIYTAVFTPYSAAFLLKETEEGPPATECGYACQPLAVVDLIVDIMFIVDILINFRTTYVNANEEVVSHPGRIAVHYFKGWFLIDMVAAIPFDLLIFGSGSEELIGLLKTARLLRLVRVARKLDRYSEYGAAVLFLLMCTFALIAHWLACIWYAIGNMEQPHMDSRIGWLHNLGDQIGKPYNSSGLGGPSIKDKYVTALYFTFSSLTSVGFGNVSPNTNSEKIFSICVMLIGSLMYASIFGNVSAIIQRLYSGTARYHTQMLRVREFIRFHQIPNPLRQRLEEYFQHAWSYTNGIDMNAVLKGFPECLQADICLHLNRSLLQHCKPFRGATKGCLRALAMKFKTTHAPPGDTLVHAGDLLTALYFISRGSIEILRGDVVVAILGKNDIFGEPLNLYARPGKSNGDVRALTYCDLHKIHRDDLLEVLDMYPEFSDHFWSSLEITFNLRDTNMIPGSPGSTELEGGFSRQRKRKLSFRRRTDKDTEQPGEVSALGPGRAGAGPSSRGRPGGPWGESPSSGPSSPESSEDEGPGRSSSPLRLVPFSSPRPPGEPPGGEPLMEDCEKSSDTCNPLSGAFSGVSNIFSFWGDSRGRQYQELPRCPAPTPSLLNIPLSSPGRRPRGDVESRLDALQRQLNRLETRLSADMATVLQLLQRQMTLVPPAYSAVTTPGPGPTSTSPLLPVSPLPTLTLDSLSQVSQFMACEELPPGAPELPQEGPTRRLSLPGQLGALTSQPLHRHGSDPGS

Compound	hERG current change (%, negative = inhibition) at 1uM [%]
O=C(NCc1ccc(F)cc1)C1(S(=O)(=O)c2ccc(Cl)cc2)CC1	-2.31
Cc1nn(C)c(C)c1CNC(=O)c1cc2n(n1)C(C(F)(F)F)CC(c1cccs1)N2 (stereo not shown)	15
Cn1c(SCC(=O)NCc2ccc(F)cc2)nc2ccccc21	-1.34
CCC1OC(=O)C(C)C(OC2C[C@@](C)(OC)C(O)C(C)O2)C(C)C(O[C@@H]2OC(C)CC(N(C)C)C2O)[C@](C)(O)CC(C)C(=NOCOCCOC)C(C)C(O)[C@]1(C)O (stereo partly shown)	16.5
O=C(c1ccc(F)cc1)c1cc2ccccc2o1	6.63
Cc1ccc(C(=O)Nc2c3c(nn2C(C)(C)C)CS(=O)(=O)C3)cc1C	1.78
COc1ccc(C(=O)NCCN2C(=O)S/C(=C\c3cccnc3)C2=O)cc1[N+](=O)[O-]	-46.6
CCn1cc(C(=O)Nc2ccc(OC)c(S(=O)(=O)N3CCCCC3)c2)c(=O)c2ccc(C)nc21	6.44
O=C1C2=C(Nc3ccccc3SC2c2ccco2)c2ccccc21 (stereo not shown)	3.56
O=C(c1cc2ccccc2o1)N1CCN(S(=O)(=O)c2ccc(Cl)s2)CC1	15.8
O=C(N/N=C/c1ccc([N+](=O)[O-])cc1)C(=O)N1CCCC1	18.5
COCC1CCN(C(=O)c2cc(COc3cncc(Cl)c3)on2)C1 (stereo not shown)	17.5
CC(C)Cn1c(=O)c2ccccc2n2c(CCC(=O)O)nnc12	17.9
COc1ccc(-n2nnnc2S(=O)(=O)CC(=O)N2CCCCC2)cc1	3.41
CCC(=NCc1cccnc1)c1c(O)n(C2CCCCC2)c(=O)[nH]c1=O	-23.6
CCOc1ccc(NC(=O)CSc2nc3[nH]ncc3c(=O)n2-c2ccccc2OC)cc1	12.4
CN(C)c1nnnn1-c1ccc(OC(F)(F)F)cc1	14.5
CCOCC(=O)Nc1cccc(-c2nc3cccnc3s2)c1C	7.32
Cc1cc(C(=O)N/N=C/C=C/c2ccccc2[N+](=O)[O-])c(C)o1	-5.64
COC(=O)C1=C(C)OC(N)=C(C#N)C1c1ccccc1F (stereo not shown)	1.13
O=C(Nc1ccccc1)c1ccc(NCCN2CCOCC2)c(S(=O)(=O)N2CCOCC2)c1	5.62
Cn1c(=O)n(Cc2ccccc2)c(=O)c2c1nc1n2CCS1	11.2
